Laboratory results from PubChem BioAssay (NCI).
Where “and” joins values, the source holds several entries; their conditions need not be identical. Equal values may be shown once.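 How tested: cells in 96-well plates exposed to compound for 48 hours at five concentrations. GI50 marks 50% less growth. TGI: concentration producing complete growth inhibition.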

System: NCI-H322M lung
Test: NCI-60 cell line screen, 48 h

`Cc1cccc(Nc2nc(NNC(=O)Cc3ccccc3)nc(NNC(=O)c3ccncc3)n2)c1` and `Cc1nc2sc(C(=O)Nc3cccc(Cl)c3C)c(N)c2cc1C(=O)c1ccccc1` cannot be ordered by TGI: greater than 10 µM for the first, greater than 50 µM for the second.

Compared with `COc1ccc(C(=O)c2cc(OC)c(OC)c(OC)c2)cc1/C=C/C(=O)c1ccc2c(c1)OCO2`, `COc1ccc2cc(C(=O)/C=C/c3ccco3)ccc2c1` is lower in TGI: greater than 100 µM for the first, 92.3 µM for the second.

`Cc1cccc2c1ccc1c3occ(C)c3c(=O)oc21` and `Cc1ccc(C)c(N2C(=O)C(=O)c3c(C)ccc(C)c32)c1` cannot be ordered by TGI: greater than 100 µM for the first, greater than 100 µM for the second.

`NS(=O)(=O)c1ccc(N=Nc2nc3[nH]cnc(=S)c3[nH]2)cc1` and `CS(=O)(=O)c1ccc(-c2[nH]c3ccc(F)cc3c2/C=N/NC(N)=S)cc1` cannot be ordered by TGI: greater than 100 µM for the first, greater than 100 µM for the second.

`CCOC(=O)c1nc2cc(C(F)(F)F)ccc2nc1Oc1ccc(C(=O)OC)cc1` and `COC(=O)C(C(=O)C(=O)Nc1ccc([N+](=O)[O-])cc1)c1nc2cc(C)c(C)cc2[nH]c1=O` (stereo unspecified) cannot be ordered by TGI: greater than 100 µM for the first, greater than 100 µM for the second.

`CCN(CC)C(=O)N[C@@H](Cc1ccccc1)C(=O)NC` and `COC(=O)C(CCSc1ccccc1)C(=O)OC` cannot be ordered by TGI: greater than 100 µM for the first, greater than 100 µM for the second.

Going from `O=C(/C=C/c1ccc(O)cc1)c1cc(O)cc(O)c1` to `CC(C)N(C(=O)c1ccc(NCc2cc(O)ccc2O)cc1)C(C)C`, the TGI rises from 31.4 µM to 67.2 µM (2.1-fold).

`Nc1ccc(-c2nc3ccccc3s2)cc1I` and `O=c1cc(-c2ccccc2)nc2cc(-c3ccco3)[nH]n12` cannot be ordered by TGI: greater than 100 µM for the first, greater than 100 µM for the second.

`COc1cc(/C=C2/C(=O)N=C(NC(C)=O)N2C)ccc1OC(C)=O` and `CC(=O)OCc1c(C)c2ccccc2n1C(C)=O` cannot be ordered by TGI: greater than 100 µM for the first, greater than 100 µM for the second.

`Cc1ccc(N=Nc2c(C)nn(C(=O)CC(=O)Nc3ccc(Cl)cc3)c2C)cc1C` and `Cc1cc(S(=O)(=O)Nc2nc(N)nc(N(C)C)n2)c(SC(C(=O)O)c2ccccc2)cc1Cl` (stereo unspecified) cannot be ordered by TGI: greater than 100 µM for the first, greater than 10 µM for the second.

`COc1cc(/C=N/Nc2ncnc3c2cnn3Cc2ccccc2)ccc1O` and `COc1cc2c3c(c1OCc1ccccc1)NCCC3NCC2` (stereo unspecified) cannot be ordered by TGI: greater than 25 µM for the first, greater than 100 µM for the second.

`Nc1ccn(CC(CO)CC(c2ccccc2)P(=O)(O)O)c(=O)n1` (stereo unspecified) and `N#Cc1nc(NC(=O)c2ccccc2)sc1N` cannot be ordered by TGI: greater than 100 µM for the first, greater than 10 µM for the second.

Going from `N#Cc1nc(Nc2ccc(Cl)cc2)sc1N` to `N=C(N)c1ccc(-c2ccc(-c3ccc(Cl)c(Cl)c3)o2)nc1`, the TGI falls from greater than 100 µM to 3.24 µM.

Going from `CCC[CH2][Ge]([CH2]CCC)([CH2]CCC)[O]C(=O)C(OC(C)=O)c1ccccc1` (stereo unspecified) to `CCCCCCCCCCNC(=S)OCCCC`, the TGI rises from 24.1 µM to 91.3 µM (3.8-fold).

`O=C(NCc1cccs1)OC1CC2CCC1C2` (stereo unspecified) and `Cc1ccc(S(=O)(=O)NC(=O)C#CCOC2CCCCO2)cc1` (stereo unspecified) cannot be ordered by TGI: greater than 100 µM for the first, greater than 100 µM for the second.

Going from `O=[N+]([O-])c1cc([N+](=O)[O-])c(C(Cl)C(Cl)c2ccccc2)cc1C(Cl)C(Cl)c1ccccc1` (stereo unspecified) to `Cc1nc2ccc(S(=O)(=O)Nc3ccccc3Cl)cc2c(=O)n1NC(=O)CNc1ccccc1Cl`, the TGI rises from 29.3 µM to greater than 100 µM.

`CCOC1=C2C(C)(CCC3[C@@]4(C)C=CC(=O)C(C)(C)C4CC(O)[C@@]23C)C(c2ccoc2)C1=O` (stereo partly specified) and `CC1=C2c3ccccc3N(S(=O)(=O)c3ccccc3)[C@H]2[C@H](C(=O)N2C3CC4CC[C@@]3(CS2(=O)=O)C4(C)C)CC1` (stereo partly specified) cannot be ordered by TGI: greater than 100 µM for the first, greater than 100 µM for the second.

`CCCCCCCCCCCCCC(=O)OC1C(CO)OC(=O)C1O` (stereo unspecified) and `Cc1cn(C2CC(N=[N+]=[N-])C(CO)O2)c(=O)n(CCCCO)c1=O` (stereo unspecified) cannot be ordered by TGI: greater than 100 µM for the first, greater than 100 µM for the second.

Compared with `O=C1C(Cl)C(c2cccc(Br)c2)N1c1c(O)c(Cl)cc(Br)c1Cl` (stereo unspecified), `CC1=C2[C@@H](c3ccccc3)C3C=CC2(c2ccccc23)N(C(=O)Nc2cccc3ccccc23)C1=O` (stereo partly specified) is higher in TGI: 29.1 µM for the first, greater than 100 µM for the second.

`COCN1C(=O)[C@@H]2CCCN2C(=O)c2cc(Cl)ccc21` and `COC1CC(n2ccc(=O)[nH]c2=O)OC1CO` (stereo unspecified) cannot be ordered by TGI: greater than 100 µM for the first, greater than 100 µM for the second.

First: Cc1csc(-c2ccc3c(c2)COC3(CCCN(C)C)c2ccc(F)cc2)c1 (stereo unspecified)
Second: Cc1n(CC(C)C)c2c([n+]1CC(=O)c1ccc([N+](=O)[O-])cc1)C(=O)c1ccccc1C2=O
The TGI of the first is 12-fold higher: 3.08 µM for the first, 0.262 µM for the second.

First: CNC(=O)c1c(NC(=O)c2ccc(C(C)C)cc2)sc2c1CCC(=O)C2
Second: Cc1cccc2c(N)c3cccc(C(=O)NCCN4CCOCC4)c3nc12
The TGI of the first is higher: greater than 34.1 µM for the first, 6.37 µM for the second.

`O=C(O)CP(=O)(c1ccccc1)c1ccccc1.O=C(O)CP(=O)(c1ccccc1)c1ccccc1.[Cd]` and `COc1ccc2[nH]cc(CN3CCC(CO)(c4ccccc4)CC3)c2c1` cannot be ordered by TGI: greater than 100 µM for the first, greater than 100 µM for the second.

`COC(=O)c1cn(CCCCO)nn1` and `CCCC(=O)Nc1ncnc2c1ncn2C1OC2COP(=O)(O)OC2C1OC(=O)CCC` (stereo unspecified) cannot be ordered by TGI: greater than 100 µM for the first, greater than 1000 µM for the second.

`Cc1ccc(-c2n[nH]c(=O)n2N2C(=O)C=CC2=O)cc1` and `O=C(NCCCCCCNC(=O)NC1OCC(O)C(O)C1O)NC1OCC(O)C(O)C1O` (stereo unspecified) cannot be ordered by TGI: greater than 100 µM for the first, greater than 100 µM for the second.

With `CC(C)N(C(=O)C12C3C4C5C3C1(C#N)C5C42)C(C)C` (stereo unspecified) the TGI was greater than 100 µM.

Going from `COc1ccc(C(=O)c2cc(OC)c(OC)c(OC)c2)cc1/C=C/C(=O)c1ccc2c(c1)OCO2` to `COc1ccc2cc(C(=O)/C=C/c3ccco3)ccc2c1`, the GI50 rises from 4.04 µM to 34.1 µM (8.4-fold).

Compared with `Cc1cccc2c1ccc1c3occ(C)c3c(=O)oc21`, `Cc1nc2sc(C(=O)Nc3cccc(Cl)c3C)c(N)c2cc1C(=O)c1ccccc1` is lower in GI50: greater than 100 µM for the first, 0.403 µM for the second.

Compared with `CN1CCN(CCCN2c3ccccc3Sc3ccc(C(F)(F)F)cc32)CC1`, `Cc1csc(-c2ccc3c(c2)COC3(CCCN(C)C)c2ccc(F)cc2)c1` (stereo unspecified) is 3.7-fold lower in GI50: 6.29 µM for the first, 1.69 µM for the second.

`COc1cc(/C=N/Nc2ncnc3c2cnn3Cc2ccccc2)ccc1O` and `O=c1cc(-c2ccccc2)nc2cc(-c3ccco3)[nH]n12` are within 1.5-fold of each other in GI50: 15.6 µM for the first, 10.6 µM for the second.

`CCC[CH2][Ge]([CH2]CCC)([CH2]CCC)[O]C(=O)C(OC(C)=O)c1ccccc1` (stereo unspecified) and `CNC(=O)c1c(NC(=O)c2ccc(C(C)C)cc2)sc2c1CCC(=O)C2` are within 1.5-fold of each other in GI50: 3.64 µM for the first, 3.28 µM for the second.

Going from `O=C(O)CP(=O)(c1ccccc1)c1ccccc1.O=C(O)CP(=O)(c1ccccc1)c1ccccc1.[Cd]` to `N=C(N)c1ccc(-c2ccc(-c3ccc(Cl)c(Cl)c3)o2)nc1`, the GI50 falls from 71.4 µM to 1.72 µM (42-fold).

Compared with `CCCC(=O)Nc1ncnc2c1ncn2C1OC2COP(=O)(O)OC2C1OC(=O)CCC` (stereo unspecified), `CS(=O)(=O)c1ccc(-c2[nH]c3ccc(F)cc3c2/C=N/NC(N)=S)cc1` is lower in GI50: greater than 1000 µM for the first, 13 µM for the second.

For `CN1CCN(CCCN2c3ccccc3Sc3ccc(C(F)(F)F)cc32)CC1`, the TGI was 19.1 µM and 21.4 µM and 25.5 µM.
